Read counts are not given, so values of variants with three or more changes are uncertain.
B1: LINE1-mini (parent)
chain: GGCAGAGCUCAACACAGCGUGGCAAAGUGGCUGUGGCUAGACUGCC

Variants of: B1
Assay: self-cleavage, relative activity (ratio to wild type); higher = more cleavage; in vitro, sequencing; the parent is a self-cleaving ribozyme

With G36U U38G C45A as the variant, how does the self-cleavage read?
Its self-cleavage is 0.02.

With G36U U38G G44C as the variant, how does the self-cleavage read?
The self-cleavage was 0.

Which self-cleavage does the source give for G36U U43C C46A here?
Its self-cleavage is 0.02.

For C37A A39G A41U, which self-cleavage is on record?
The self-cleavage was 0.03.

With C37A C45U C46U as the variant, how does the self-cleavage read?
Its self-cleavage is 0.79.

For C37A G40A C45U, which self-cleavage is on record?
Its self-cleavage is 0.21.

For C37A G40U C45G, which self-cleavage is on record?
The self-cleavage was 0.43.

For C37A U38A G40A, which self-cleavage is on record?
The self-cleavage was 0.12.

Which self-cleavage does the source give for C37U A39U G40U here?
Its self-cleavage is 0.34.

Which self-cleavage does the source give for C37U C42U C45U here?
The self-cleavage was 0.02.

Which self-cleavage does the source give for C37U U38C U43G C45A here?
Its self-cleavage is 0.12.

With U38A G40U C42A as the variant, how does the self-cleavage read?
The self-cleavage was 0.09.

For U38A G40U C45U, which self-cleavage is on record?
Its self-cleavage is 0.02.

With U38G A39G A41C as the variant, how does the self-cleavage read?
The self-cleavage was 0.01.

With U38G C42A C46U as the variant, how does the self-cleavage read?
Its self-cleavage is 0.04.

With A39C G40U A41C as the variant, how does the self-cleavage read?
Its self-cleavage is 0.02.

For A39C G40U C46A, which self-cleavage is on record?
Its self-cleavage is 0.13.

With A39U C42A G44C as the variant, how does the self-cleavage read?
Its self-cleavage is 0.04.

With A39U G40C G44C as the variant, how does the self-cleavage read?
Its self-cleavage is 0.06.

For G40A C42G U43G, which self-cleavage is on record?
Its self-cleavage is 0.1.

With G40A C42U C46U as the variant, how does the self-cleavage read?
The self-cleavage was 0.08.

With G40A G44C C45U as the variant, how does the self-cleavage read?
Its self-cleavage is 0.06.

With G40C C42U C45G as the variant, how does the self-cleavage read?
The self-cleavage was 0.05.

With G40U C42G C45A as the variant, how does the self-cleavage read?
The self-cleavage was 0.26.

Which self-cleavage does the source give for A41C C42G C46G here?
Its self-cleavage is 0.02.

With A41C U43G C45A as the variant, how does the self-cleavage read?
The self-cleavage was 0.03.

Which self-cleavage does the source give for A41G C42A C46U here?
Its self-cleavage is 0.04.

Which self-cleavage does the source give for A41G G44A C45A here?
Its self-cleavage is 0.12.

Which self-cleavage does the source give for A41G G44U C45U here?
Its self-cleavage is 0.04.

Which self-cleavage does the source give for A41U C42U C45G C46A here?
Its self-cleavage is 0.02.

For C42A G44A C46A, which self-cleavage is on record?
The self-cleavage was 0.04.

With C42U C45A C46U as the variant, how does the self-cleavage read?
The self-cleavage was 0.12.

Which self-cleavage does the source give for U43A C45A C46G here?
The self-cleavage was 0.11.

Source: the RNAGym collection of RNA variant scans (doi:10.7554/elife.90254)
